These are yes or no findings as the source states them, for the method shown. In cells and extracts the contact can be indirect. Some binding calls cover weakened binding; strength is not graded here. For some assays here: Tags and fused reporters may be left off the sequences shown.
Experiments:
[1] = biological target: T1, Carnitine palmitoyltransferase 1a (Cpt1a), endogenous (mouse (endogenous in MH-S and in mouse lung macrophages)) (UniProt P97742); assay: co-IP; lung macrophages isolated at 21 days from DN-MCU-Lyz2-cre mice and WT littermates exposed to saline or bleomycin; Cpt1a immunoprecipitation, immunoblot for Bcl-2 and Cpt1a
T1 sequence: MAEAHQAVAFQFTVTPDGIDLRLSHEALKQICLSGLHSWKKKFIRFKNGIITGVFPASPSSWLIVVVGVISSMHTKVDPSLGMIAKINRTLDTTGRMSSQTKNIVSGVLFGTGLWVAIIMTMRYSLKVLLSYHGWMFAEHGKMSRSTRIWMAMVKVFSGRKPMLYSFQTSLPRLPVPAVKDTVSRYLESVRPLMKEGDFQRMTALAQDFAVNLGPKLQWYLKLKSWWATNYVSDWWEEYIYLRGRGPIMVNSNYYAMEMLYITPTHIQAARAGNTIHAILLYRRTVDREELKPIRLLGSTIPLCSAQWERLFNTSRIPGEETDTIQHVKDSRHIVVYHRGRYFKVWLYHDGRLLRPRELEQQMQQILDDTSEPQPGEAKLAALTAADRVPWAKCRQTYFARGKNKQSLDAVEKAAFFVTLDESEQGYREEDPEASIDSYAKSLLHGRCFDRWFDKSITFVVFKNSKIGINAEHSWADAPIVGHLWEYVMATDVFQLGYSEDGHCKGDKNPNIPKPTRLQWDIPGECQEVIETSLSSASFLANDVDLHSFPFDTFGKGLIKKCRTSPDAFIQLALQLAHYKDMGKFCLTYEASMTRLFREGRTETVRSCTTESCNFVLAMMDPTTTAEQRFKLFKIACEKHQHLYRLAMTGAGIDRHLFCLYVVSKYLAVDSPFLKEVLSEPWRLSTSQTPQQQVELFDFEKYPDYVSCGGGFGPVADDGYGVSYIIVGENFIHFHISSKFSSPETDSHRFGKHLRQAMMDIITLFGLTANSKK

By UniProt entry, the sequences of proteins in these tests, tags left out.
UniProt P10417: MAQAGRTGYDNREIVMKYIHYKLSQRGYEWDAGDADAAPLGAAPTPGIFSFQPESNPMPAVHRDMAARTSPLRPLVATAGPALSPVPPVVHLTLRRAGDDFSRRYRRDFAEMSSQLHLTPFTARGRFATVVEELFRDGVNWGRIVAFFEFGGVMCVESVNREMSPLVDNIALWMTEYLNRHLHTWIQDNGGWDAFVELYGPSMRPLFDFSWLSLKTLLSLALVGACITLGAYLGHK

Cpt1a-His-V5 [2] = biological target: T2, Cpt1a-His-V5 (UniProt P97742); assay: co-IP; MH-S cells (transfected with empty, MCUWT and/or Cpt1a; or treated with octanoate 10 µM or palmitate 100 µM for 3 h; or vehicle), NP40 lysis buffer; Cpt1a antibody crosslinked to Dynabeads Protein G, 1 h at room temperature; immunoblot for Bcl-2 and Cpt1a
T2 sequence: T1 sequence

[3] = biological target: T1, Carnitine palmitoyltransferase 1a (Cpt1a), endogenous (mouse (endogenous in MH-S and in mouse lung macrophages)); assay: as above
Cpt1a-His-V5 [4] = biological target: T2, Cpt1a-His-V5; assay: condition: only cells treated with ABT-199 (1 μM, overnight); co-IP; MH-S cells transfected to overexpress Cpt1a and treated with ABT-199 (1 μM, overnight); lysate immunoprecipitated with Cpt1a antibody, immunoblot for Bcl-2
Cpt1a-His-V5 [5] = biological target: T2, Cpt1a-His-V5; assay: pull-down; V5-His-tagged protein purified from transfected MH-S cells (as previously described, ref. 25), immunoblot for the partner

- binding [1]: binds
- binding (Cpt1a-His-V5 [2]): binds
- binding [3]: binds
- binding (Cpt1a-His-V5 [4]): no binding
- binding (Cpt1a-His-V5 [5]): binds
Substance: B-cell lymphoma-2 (Bcl-2), endogenous (from UniProt P10417 1-236)

From publication PMC8738732
